Among the data in ChEMBL document CHEMBL1961873, “Compounds: GSK PKIS; Assays: Nanosyn kinase panel” (2012) are inhibition values, retold here.

Test [1] addresses High affinity nerve growth factor receptor (Homo sapiens) (UniProt P04629). To be noted: at 1 µM.
Test [2] deals with BDNF/NT-3 growth factors receptor (Homo sapiens) (UniProt Q16620). To be noted: at 0.1 µM.
Test [3] has the same target. To be noted: at 1 µM.
Test [4] concerns the target NT-3 growth factor receptor (Homo sapiens) (UniProt Q16288). To be noted: at 0.1 µM.
UniProt Q16288, sequence (Q16288 whole entry, looked up): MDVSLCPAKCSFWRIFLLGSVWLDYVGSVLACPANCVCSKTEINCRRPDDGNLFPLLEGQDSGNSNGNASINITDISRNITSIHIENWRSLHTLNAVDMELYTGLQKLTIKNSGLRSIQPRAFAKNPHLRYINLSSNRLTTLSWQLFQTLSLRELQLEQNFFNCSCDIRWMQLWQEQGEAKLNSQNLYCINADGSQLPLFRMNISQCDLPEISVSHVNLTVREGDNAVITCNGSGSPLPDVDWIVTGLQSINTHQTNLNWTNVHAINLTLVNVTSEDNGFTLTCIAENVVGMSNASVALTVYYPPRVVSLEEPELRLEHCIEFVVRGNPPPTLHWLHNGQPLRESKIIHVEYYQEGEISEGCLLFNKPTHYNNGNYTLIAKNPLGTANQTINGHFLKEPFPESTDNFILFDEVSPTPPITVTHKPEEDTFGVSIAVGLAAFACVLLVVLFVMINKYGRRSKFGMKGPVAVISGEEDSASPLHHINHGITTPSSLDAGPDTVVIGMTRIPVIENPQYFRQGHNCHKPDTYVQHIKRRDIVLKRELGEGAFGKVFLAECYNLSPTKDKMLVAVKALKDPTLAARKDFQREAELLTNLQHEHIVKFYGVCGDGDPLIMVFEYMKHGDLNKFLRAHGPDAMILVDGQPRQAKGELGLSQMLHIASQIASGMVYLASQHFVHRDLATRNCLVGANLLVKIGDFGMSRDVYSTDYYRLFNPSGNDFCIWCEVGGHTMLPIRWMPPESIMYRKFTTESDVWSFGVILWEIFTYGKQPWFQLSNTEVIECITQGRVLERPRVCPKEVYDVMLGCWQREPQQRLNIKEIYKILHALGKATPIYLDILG
Test [5] has the same target. To be noted: at 1 µM.
Test [6] concerns the target T1, Tyrosine-protein kinase TXK (Homo sapiens) (UniProt P42681).
T1 sequence (whole entry): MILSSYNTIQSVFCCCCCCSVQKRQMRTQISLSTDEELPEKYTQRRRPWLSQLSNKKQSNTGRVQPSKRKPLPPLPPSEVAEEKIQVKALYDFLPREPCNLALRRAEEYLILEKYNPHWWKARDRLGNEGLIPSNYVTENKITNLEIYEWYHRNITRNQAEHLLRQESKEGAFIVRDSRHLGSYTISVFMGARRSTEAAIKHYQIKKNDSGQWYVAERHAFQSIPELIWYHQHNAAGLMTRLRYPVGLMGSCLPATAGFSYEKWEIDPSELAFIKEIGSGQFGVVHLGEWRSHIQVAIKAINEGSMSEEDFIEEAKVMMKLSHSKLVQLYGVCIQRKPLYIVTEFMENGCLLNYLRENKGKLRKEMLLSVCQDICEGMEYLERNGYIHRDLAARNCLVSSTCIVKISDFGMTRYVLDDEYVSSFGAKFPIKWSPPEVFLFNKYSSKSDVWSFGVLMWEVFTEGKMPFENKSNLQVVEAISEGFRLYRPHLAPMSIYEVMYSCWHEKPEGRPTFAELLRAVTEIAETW
To be noted: at 0.1 µM.

Test [7] deals with T1, Tyrosine-protein kinase TXK (Homo sapiens). To be noted: at 1 µM.
Test [8] addresses Non-receptor tyrosine-protein kinase TYK2 (Homo sapiens) (UniProt P29597). Particulars: at 0.1 µM.
UniProt P29597, sequence (P29597 whole entry): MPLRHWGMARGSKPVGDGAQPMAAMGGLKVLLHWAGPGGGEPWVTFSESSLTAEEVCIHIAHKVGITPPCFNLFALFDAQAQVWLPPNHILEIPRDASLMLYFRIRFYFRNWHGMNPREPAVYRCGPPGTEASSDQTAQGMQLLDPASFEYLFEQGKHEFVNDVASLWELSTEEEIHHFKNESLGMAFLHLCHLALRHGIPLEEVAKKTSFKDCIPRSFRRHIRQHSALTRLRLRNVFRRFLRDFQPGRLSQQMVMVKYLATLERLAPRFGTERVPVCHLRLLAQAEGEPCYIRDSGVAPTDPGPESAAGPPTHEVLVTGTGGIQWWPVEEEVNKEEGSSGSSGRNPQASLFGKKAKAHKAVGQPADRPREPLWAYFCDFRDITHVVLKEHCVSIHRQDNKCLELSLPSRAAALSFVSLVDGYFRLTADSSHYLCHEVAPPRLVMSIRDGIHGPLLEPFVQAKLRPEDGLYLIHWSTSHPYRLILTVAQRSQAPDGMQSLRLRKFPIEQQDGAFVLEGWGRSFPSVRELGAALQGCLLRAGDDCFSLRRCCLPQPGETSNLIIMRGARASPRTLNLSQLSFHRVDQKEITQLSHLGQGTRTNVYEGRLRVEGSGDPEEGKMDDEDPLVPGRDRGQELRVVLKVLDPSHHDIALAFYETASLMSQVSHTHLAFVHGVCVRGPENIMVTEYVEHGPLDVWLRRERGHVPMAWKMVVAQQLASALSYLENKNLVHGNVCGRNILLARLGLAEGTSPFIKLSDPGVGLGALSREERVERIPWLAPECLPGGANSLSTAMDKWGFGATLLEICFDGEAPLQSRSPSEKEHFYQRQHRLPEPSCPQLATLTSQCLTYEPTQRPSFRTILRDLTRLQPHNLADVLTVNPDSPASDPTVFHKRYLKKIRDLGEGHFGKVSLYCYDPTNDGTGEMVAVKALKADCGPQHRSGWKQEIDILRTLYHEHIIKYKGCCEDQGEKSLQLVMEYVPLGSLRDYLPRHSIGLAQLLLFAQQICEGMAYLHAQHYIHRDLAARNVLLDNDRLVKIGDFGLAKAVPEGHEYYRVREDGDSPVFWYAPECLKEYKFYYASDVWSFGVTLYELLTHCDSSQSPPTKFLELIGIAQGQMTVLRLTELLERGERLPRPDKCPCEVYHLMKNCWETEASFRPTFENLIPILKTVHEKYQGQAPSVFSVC
The target of test [9] is T2, Dual specificity protein kinase TTK (Homo sapiens) (UniProt P33981).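 Note: reported figures are mean TTK inhibition at 1 µM.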
T2 sequence (whole entry): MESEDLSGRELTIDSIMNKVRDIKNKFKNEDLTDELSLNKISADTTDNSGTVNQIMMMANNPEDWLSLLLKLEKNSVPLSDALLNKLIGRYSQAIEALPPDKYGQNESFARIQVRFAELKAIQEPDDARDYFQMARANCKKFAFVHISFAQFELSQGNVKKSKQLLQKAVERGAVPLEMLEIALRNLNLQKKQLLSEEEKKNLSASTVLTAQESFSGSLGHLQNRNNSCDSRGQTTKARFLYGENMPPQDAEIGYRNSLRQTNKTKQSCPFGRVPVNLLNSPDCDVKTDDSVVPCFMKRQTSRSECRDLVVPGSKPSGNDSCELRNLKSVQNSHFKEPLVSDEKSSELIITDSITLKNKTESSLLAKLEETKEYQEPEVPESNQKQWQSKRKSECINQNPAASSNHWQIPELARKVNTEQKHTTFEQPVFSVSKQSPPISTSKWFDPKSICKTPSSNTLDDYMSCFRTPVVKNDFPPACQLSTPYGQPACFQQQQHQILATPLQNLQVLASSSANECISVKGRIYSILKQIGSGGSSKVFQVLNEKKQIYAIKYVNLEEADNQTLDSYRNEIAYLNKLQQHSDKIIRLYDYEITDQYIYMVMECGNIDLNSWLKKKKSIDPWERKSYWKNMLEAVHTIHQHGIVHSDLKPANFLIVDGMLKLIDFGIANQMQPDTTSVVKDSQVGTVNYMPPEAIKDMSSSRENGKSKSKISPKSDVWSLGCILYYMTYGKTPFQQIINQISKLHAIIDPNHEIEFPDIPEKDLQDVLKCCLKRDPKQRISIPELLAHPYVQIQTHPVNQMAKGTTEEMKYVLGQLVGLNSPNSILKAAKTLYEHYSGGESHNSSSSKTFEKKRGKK
Particulars: at 1 µM.

Test [10] concerns the target T3, Aurora kinase A (Homo sapiens) (UniProt O14965).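 Note: each reported value is a mean percent inhibition of Aurora-A.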
T3 sequence (whole entry): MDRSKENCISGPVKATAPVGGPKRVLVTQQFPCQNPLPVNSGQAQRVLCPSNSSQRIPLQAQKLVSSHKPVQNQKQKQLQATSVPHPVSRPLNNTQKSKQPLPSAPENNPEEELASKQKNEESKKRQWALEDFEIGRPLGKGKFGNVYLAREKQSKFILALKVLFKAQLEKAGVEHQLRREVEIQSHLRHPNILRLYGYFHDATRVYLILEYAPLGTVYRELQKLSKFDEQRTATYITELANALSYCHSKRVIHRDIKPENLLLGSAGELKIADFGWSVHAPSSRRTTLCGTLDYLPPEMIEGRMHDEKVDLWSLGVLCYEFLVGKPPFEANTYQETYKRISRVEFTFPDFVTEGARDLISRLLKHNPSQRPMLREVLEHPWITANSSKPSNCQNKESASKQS
Particulars: at 0.1 µM.

Each structure is given as a SMILES string. For some assays here: The strong results were mostly taken out for another list; the other results follow. The list shows a part of the results, in another mix than the full data.

UniProt P04629, sequence (P04629 whole entry, looked up): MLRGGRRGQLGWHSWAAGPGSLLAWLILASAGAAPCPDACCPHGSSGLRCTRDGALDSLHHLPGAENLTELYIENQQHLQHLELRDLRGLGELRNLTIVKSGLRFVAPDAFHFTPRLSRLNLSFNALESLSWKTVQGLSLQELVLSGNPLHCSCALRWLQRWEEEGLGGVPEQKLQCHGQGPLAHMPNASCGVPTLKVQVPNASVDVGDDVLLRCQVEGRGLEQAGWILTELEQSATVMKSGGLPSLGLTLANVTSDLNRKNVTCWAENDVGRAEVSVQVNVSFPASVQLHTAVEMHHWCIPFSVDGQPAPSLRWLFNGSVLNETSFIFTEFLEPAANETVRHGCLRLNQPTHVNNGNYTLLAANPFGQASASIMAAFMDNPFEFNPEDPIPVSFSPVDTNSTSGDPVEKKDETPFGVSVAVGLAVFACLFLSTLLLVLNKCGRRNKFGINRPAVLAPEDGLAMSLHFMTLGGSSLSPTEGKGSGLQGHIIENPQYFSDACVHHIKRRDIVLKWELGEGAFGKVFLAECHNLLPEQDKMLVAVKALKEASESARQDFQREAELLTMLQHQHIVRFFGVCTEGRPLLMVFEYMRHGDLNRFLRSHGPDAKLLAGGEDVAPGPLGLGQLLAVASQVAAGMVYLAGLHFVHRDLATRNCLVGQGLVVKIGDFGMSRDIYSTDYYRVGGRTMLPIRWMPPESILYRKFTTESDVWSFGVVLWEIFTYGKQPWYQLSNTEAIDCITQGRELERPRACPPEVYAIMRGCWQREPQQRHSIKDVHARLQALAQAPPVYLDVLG
UniProt Q16620, sequence (Q16620 whole entry, looked up): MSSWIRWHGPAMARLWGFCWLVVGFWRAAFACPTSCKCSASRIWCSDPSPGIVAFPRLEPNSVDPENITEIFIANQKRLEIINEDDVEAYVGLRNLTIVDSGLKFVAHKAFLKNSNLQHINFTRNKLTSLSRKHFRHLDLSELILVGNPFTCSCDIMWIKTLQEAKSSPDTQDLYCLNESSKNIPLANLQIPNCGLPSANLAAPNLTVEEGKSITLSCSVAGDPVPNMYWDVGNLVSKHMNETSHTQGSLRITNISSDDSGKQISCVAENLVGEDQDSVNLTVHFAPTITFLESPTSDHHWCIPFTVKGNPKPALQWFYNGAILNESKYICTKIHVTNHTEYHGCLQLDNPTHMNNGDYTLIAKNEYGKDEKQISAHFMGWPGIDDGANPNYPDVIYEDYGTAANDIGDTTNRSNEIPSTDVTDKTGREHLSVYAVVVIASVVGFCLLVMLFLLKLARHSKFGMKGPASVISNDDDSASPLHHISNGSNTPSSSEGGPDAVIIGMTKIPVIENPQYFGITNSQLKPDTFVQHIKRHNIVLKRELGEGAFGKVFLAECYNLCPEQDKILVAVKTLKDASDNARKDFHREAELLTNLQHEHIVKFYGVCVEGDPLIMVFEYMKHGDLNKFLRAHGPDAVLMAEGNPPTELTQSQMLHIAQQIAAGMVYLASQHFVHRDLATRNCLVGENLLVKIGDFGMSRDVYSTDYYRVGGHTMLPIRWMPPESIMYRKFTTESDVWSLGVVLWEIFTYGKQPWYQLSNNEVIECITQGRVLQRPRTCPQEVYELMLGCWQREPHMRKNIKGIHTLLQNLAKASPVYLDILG

As usually defined, the inhibition is the drop in the measured response relative to a control, in per cent. Take `O=C1NC(=O)C(c2cccc([N+](=O)[O-])c2)=C1Nc1cc(Cl)c(O)c(Cl)c1`: the inhibition is -0.43% in test [1]; 1.25% in [2]; 0.97% in [3]; 1.51% in test [4]; 1.33% in test [5]; -2% in [6]. Also, the inhibition in test [7] is 0.63%; in [8] it was -1.44%; in [9], 3.3%; in [10], 4.32%.
`NC(=O)CCc1ccccc1Oc1nccc(-c2c(-c3ccc(F)cc3)ncn2C2CCNCC2)n1`: the inhibition in [1] was 1.91%; in test [2] it was -1.77%; in test [3] it was -0.62%; in test [4], -0.36%; in [5], 0.35%; in [6], -2.51%. Besides, the inhibition in test [7] was 0.04%; in test [8], -0.18%; in test [9], 1.46%; in test [10], -3.22%.
Regarding `CC(C)(C)c1ccc(Oc2nccc(-c3c(-c4ccc(F)cc4)ncn3C3CCNCC3)n2)cc1`, the inhibition is 6.54% in test [1]; 3.43% in test [2]; 4.77% in test [3]; 2.36% in test [4]; 3.58% in [5]; -0.65% in test [6]. In addition, the inhibition in test [7] was 2.64%; in [8] it was -0.01%; in test [9], 13.5%; in test [10], 2.69%.
On to `CS(=O)(=O)c1ccc(Oc2nccc(-c3c(-c4ccc(F)cc4)ncn3C3CCNCC3)n2)cc1`, for which the inhibition was 0.39% in [1]; 3% in test [2]; 3.47% in test [3]; 2.45% in [4]; 2.16% in test [5]; -1.79% in [6]. For the same compound, the inhibition was 1.47% in test [7], -0.68% in test [8], 9.56% in test [9] and 3.35% in [10].
In the case of `O=C1NC(=O)C(c2ccccc2)=C1Nc1ccccc1`, the inhibition in [1] was 0.95%; in test [2], 4.13%; in test [3], 5.99%; in [4], 2.58%; in test [5] it was 6.28%; in [6] it was 3.78%. Besides, the inhibition in test [7] was 7.86%; in test [8], -3.44%; in test [9], 9.02%; in test [10], 2.73%.
Regarding `Cc1cccc(Oc2nccc(-c3c(-c4ccc(F)cc4)ncn3C3CCNCC3)n2)c1C`, the inhibition is 2.44% in test [1]; 3.62% in test [2]; 3% in test [3]; 2.66% in [4]; 3.33% in test [5]; -1.3% in test [6]. Moreover, the inhibition is 3.02% in test [7], -2.76% in [8], 10.2% in test [9] and 3.78% in test [10].
Turning to `COc1ccccc1C1=C(Nc2ccccc2)C(=O)NC1=O`, the inhibition in [1] is 2.37%; in test [2] it was 1.68%; in test [3] it was 6.04%; in test [4] it was 2.18%; in [5] it was 5.53%; in test [6], 2.66%. The inhibition in [7] is 5.43%; in test [8], -2.23%; in test [9] it was 9.73%; in [10] it was 2.93%.
Take `Fc1ccc(-c2ncn(C3CCNCC3)c2-c2ccnc(Oc3cccc(C(F)(F)F)c3)n2)cc1`: the inhibition in test [1] was 0.88%; in [2], 2.5%; in [3], 2.43%; in [4] it was 1.67%; in test [5], 2.38%; in test [6], -0.4%. For the same compound, the inhibition in test [7] is 5.97%; in [8], -3.63%; in [9], 14.7%; in [10], 5.21%.
`O=C(O)c1ccc(Oc2nccc(-c3c(-c4ccc(F)cc4)ncn3C3CCNCC3)n2)cc1`: the inhibition is 6.32% in test [1]; 3.29% in test [2]; 3.09% in test [3]; 1.7% in [4]; 2.29% in [5]; 7.4% in test [6]. Also, the inhibition in test [7] was 5.95%; in test [8] it was -2.36%; in [9], 9.66%; in [10] it was 2.47%.
Turning to `Fc1ccc(Oc2nccc(-c3c(-c4ccc(F)cc4)ncn3C3CCNCC3)n2)cc1`, the inhibition in test [1] was determined as 6.25%; in test [2], 2.64%; in [3], 3.55%; in test [4] it was 3.07%; in test [5] it was 2.12%; in test [6], 4.26%. Also, the inhibition was 0.51% in [7], -3.11% in test [8], 7.87% in [9] and -1.57% in test [10].
In the case of `Fc1ccc(-c2ncn(C3CCNCC3)c2-c2ccnc(Oc3ccc(Cl)cc3)n2)cc1`, the inhibition stood at 3.02% in [1]; 3.05% in [2]; 0.87% in [3]; 0.66% in test [4]; 0.67% in [5]; 1.72% in [6]. Also, the inhibition in test [7] was 1.21%; in test [8], -0.81%; in test [9] it was 4.46%; in test [10], 0.56%.
As to `O=C1NC(=O)C(c2ccccc2Cl)=C1Nc1cc(Cl)c(O)c(Cl)c1`, the inhibition in test [1] is 2.64%; in [2], 2.11%; in test [3], 3.03%; in [4] it was 2.93%; in test [5] it was 6.27%; in [6], 3.36%. The inhibition in test [7] is 5.83%; in test [8], -4.14%; in [9], 14.4%; in [10] it was 1.59%.
For the compound `Fc1ccc(-c2ncn(C3CCNCC3)c2-c2ccnc(Oc3cccc(F)c3)n2)cc1`, the inhibition in test [1] was 8.01%; in [2], 4.01%; in test [3] it was 4.47%; in test [4] it was 3.57%; in [5], 6.8%; in [6], 7.16%. Further, the inhibition was 7.81% in test [7], -5.29% in [8], 7.86% in test [9] and 3.61% in test [10].
Take `COc1ccccc1Oc1nccc(-c2c(-c3ccc(F)cc3)ncn2C2CCNCC2)n1`: the inhibition in [1] came out at 2.78%; in test [2], 4.41%; in test [3], 4.48%; in [4], 3.33%; in [5], 2.6%; in [6], 1.24%. Further, the inhibition in [7] is 7.31%; in test [8], -4.38%; in test [9] it was 16%; in test [10], 4.52%.
